In all, about 1,900 compounds went through this assay and about 40 (2%) showed an effect of 50% or more. The list shows a part of the results.
Biological target: human SGLT1 (hSGLT1) (human, UniProt P13866)
Assay: primary screen, percent of control activity; higher = less effect of the substance
Design: single well
Details: 50 µM
Outline: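 Single-point screen at 50 µmol/L in CHO-hSGLT1 cells, with 160 µmol/L 1-NBD-glucose in glucose-free DMEM for 90 min at 37°C. Fluorescence from isopropanol extracts was calibrated, and CHO wild-type uptake was subtracted. Data are percent of uptake without compound.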

Chain of human SGLT1 (hSGLT1) (P13866 whole entry, looked up): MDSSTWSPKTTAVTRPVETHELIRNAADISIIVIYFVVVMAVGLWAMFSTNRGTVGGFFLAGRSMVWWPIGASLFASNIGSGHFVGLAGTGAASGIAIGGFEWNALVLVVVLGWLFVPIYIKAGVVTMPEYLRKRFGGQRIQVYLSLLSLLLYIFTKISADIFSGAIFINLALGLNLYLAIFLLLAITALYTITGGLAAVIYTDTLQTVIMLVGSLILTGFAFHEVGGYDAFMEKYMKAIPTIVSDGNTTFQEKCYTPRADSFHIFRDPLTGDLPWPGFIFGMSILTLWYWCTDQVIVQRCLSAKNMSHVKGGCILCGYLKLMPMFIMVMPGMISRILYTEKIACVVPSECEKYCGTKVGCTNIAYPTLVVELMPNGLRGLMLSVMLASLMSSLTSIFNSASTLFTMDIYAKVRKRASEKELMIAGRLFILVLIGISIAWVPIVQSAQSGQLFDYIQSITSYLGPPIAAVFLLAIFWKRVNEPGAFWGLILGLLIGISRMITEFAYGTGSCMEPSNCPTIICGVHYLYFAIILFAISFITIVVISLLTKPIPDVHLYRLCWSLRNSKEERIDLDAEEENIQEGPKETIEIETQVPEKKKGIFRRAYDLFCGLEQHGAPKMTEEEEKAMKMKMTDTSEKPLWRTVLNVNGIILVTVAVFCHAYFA

| Compound | NORMALIZED SGLT1 ACTIVITY (%) |
| --- | --- |
| CC(=O)O[C@@H]1CC2C(C)(C)C=CC(=O)[C@]2(C)C2CC[C@@]3(C)[C@H](c4ccoc4)OC(=O)[C@H]4O[C@]43[C@@]21C (stereo partly drawn) | 219 |
| COc1ccc(-c2cc(=O)c3c(OC)c(OC)c(OC)c(OC)c3o2)cc1 | 257 |
| CC1=C(O)C(=O)C=C2C1=CC=C1[C@@]2(C)CC[C@@]2(C)[C@@H]3C[C@](C)(C(=O)O)CC[C@]3(C)CC[C@]12C | 174 |
| OC[C@H]1O[C@@H](n2cnc3c(O)ncnc32)[C@H](O)[C@@H]1O | 112 |
| CC(=O)OC[C@@]1(O)C[C@@]23CC[C@@H]4c5ccoc5CC[C@@]4(C)[C@@H]2CC[C@@H]1C3 | 119 |
| C[n+]1cccc(C(=O)[O-])c1 | 101 |
| CCOCN(C(=O)CCl)c1c(C)cccc1CC | 86 |
| COP(=O)(OC)OC(Br)C(Cl)(Cl)Br (stereo not drawn) | 109 |
| COc1ccc2c(=O)c(CC(=O)O)coc2c1 | 176 |
| COc1cc2c(cc1OC)C1Cc3ccc(OC)c(OC)c3CN1CC2 (stereo not drawn) | 150 |
| CC1(C)CC[C@]2(C)CC[C@]3(C)C(=CCC4[C@@]5(C)CC[C@H](O)C(C)(C)C5CC[C@]43C)C2C1 (stereo partly drawn) | 91 |
| C#CCCCCCCCCCCCC(O)CC(O)COC(C)=O.C=CCCCCCCCCCCCC(O)CC(O)COC(C)=O (stereo not drawn) | 197 |
| COc1ccc(-c2cc(=O)c3ccc(OC)cc3o2)cc1 | 182 |
| NCC(CC(=O)O)c1ccc(Cl)s1 (stereo not drawn) | 93 |
| O[C@H]1[C@H](O)[C@@H](O)C2OC[C@H]1O2 | 78 |
| CC(=O)O[C@H]1C[C@@H](OC(C)=O)C(C)(C)C2C[C@@H](OC(C)=O)[C@@]3(C)C4=CC(=O)O[C@@H](c5ccoc5)[C@]4(C)CCC3[C@]21C (stereo partly drawn) | 99 |
| CC(=O)OCC[N+](C)(C)C.[Cl-] | 115 |
| C=C(C)C1CC=C(CO)CC1 (stereo not drawn) | 162 |
| Cc1ccc(C(C)C)cc2c(C)ccc1-2 | 133 |
| Nc1ncn([C@@H]2O[C@H](CO)[C@@H](O)[C@H]2O)c(=O)n1 | 135 |
| COc1cccc(OC)c1OCCNCC1COc2ccccc2O1.Cl (stereo not drawn) | 72 |
| O=C(Cc1cccs1)N[C@@H]1C(=O)N2C(C(=O)[O-])=C(C[n+]3ccccc3)CS[C@H]12 | 136 |
| C[C@@H]1O[C@@H](O[C@H]2[C@@H](Oc3cc(O)c4c(c3)O[C@H](c3ccc(O)cc3)CC4=O)O[C@H](CO)[C@@H](O)[C@@H]2O)[C@H](O)[C@H](O)[C@H]1O | 112 |

| Compound | NORMALIZED SGLT1 ACTIVITY (%) |
| --- | --- |
| Cl.c1ccc2c(CC3=NCCN3)cccc2c1 | 112 |
| C[C@]12CCC(=O)C=C1CC[C@@H]1[C@@H]2[C@@H](O)C[C@@]2(C)[C@H]1CC[C@]2(O)C(=O)COC(=O)CCC(=O)O | 110 |
| COc1ccc(CCN2CCC(Nc3nc4ccccc4n3Cc3ccc(F)cc3)CC2)cc1 | 134 |
| COc1cc(O)c2c(=O)c(O)c(-c3ccc(O)c(O)c3)oc2c1 | 243 |
| NC(CO)(CO)CO.O=C(c1ccccc1)c1ccc2n1CCC2C(=O)O (stereo not drawn) | 143 |
| COc1cc2c(cc1O)[C@@H](Cc1ccc(O)cc1)[N+](C)(C)CC2.[I-] | 95 |
| O=C(Oc1cc(O)cc2c1C[C@@H](OC(=O)c1cc(O)c(O)c(O)c1)[C@@H](c1cc(O)c(O)c(O)c1)O2)c1cc(O)c(O)c(O)c1 | 117 |
| CCn1cc(C(=O)O)c(=O)c2ccc(C)nc21 | 238 |
| CC(C)NCC(O)c1ccc2ccccc2c1.Cl (stereo not drawn) | 153 |
| Cc1c(C)c2c(c(C)c1O)CCC(C)(CCCC(C)CCCC(C)CCCC(C)C)O2 (stereo not drawn) | 185 |
| O=C(O)CNCP(=O)(O)O | 101 |
| CC(CCC(=O)O)[C@H]1CCC2C3CC[C@@H]4CC(=O)CC[C@]4(C)C3C=C[C@@]21C (stereo partly drawn) | 232 |
| CCN(CC)CCNC(=O)c1ccc(N)cc1.Cl | 107 |
| CC(=O)O[C@H]1C[C@@H](OC(C)=O)C(C)(C)C2CC(=O)[C@]3(C)C(CC[C@@]4(C)[C@H](C(=O)O)OC(=O)C5OC543)[C@]21C (stereo partly drawn) | 107 |
| Cl.c1ccc2c(c1)CN1CCCC1=N2 | 109 |
| Cn1c(=O)c2c(ncn2CCCl)n(C)c1=O | 183 |
| COc1ccc(-c2cc(=O)c3c(O)cc(O[C@@H]4O[C@H](CO[C@H]5O[C@H](C)[C@@H](O)[C@H](O)[C@@H]5O)[C@@H](O)[C@H](O)[C@H]4O)cc3o2)cc1O | 106 |
| Cc1occc(=O)c1/C=C/O | 132 |
| CC(=O)OCC1=C(C(=O)[O-])N2C(=O)[C@@H](NC(=O)Cc3cccs3)[C@H]2SC1.[Na+] | 140 |
| CC(C(=O)O)c1ccc(N2Cc3ccccc3C2=O)cc1 (stereo not drawn) | 137 |
| COc1ccc2c(c1OC)C(=O)O[C@@H]2[C@H]1c2cc3c(cc2CCN1C)OCO3 | 79 |
| CC(C)=CCCC1(C)C=Cc2c(O)c3c(c(CC=C(C)C)c2O1)OC12C(=CC4CC1C(C)(C)OC2(C/C=C(\C)C(N)=O)C4=O)C3=O (stereo not drawn) | 119 |
